Laboratory results reported in PubChem BioAssay AID1508621 (National Center for Advancing Translational Sciences (NCATS), 2021).
Inconclusive results, whose numbers are uncertain, are shown with a selection of clear calls. Potencies of inconclusive entries are doubtful fits and often do not repeat. Activity calls are given as the source filed them. Calls follow the shape of the dose curve; as a rule, active = well fitted inhibition curve with a large enough effect; inconclusive = small, poorly fitted or top-dose-only effect; inactive = no such curve, though single readings can be large or run the other way.

assay: Confirmatory qHTS for Identification of Small Molecule Inhibitors of Huntingtin Promoter Activity; details: HEK293 HTT promoter firefly luciferase reporter, 24 h; series mostly up to 57.5 µM; also: nearly all actives have a fitted effect of over 65% in size
Outline: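 Plated reporter HEK293 cells (24 h) received library compounds at up to 57.5 uM final or 50 uM PTC124, incubated 24 h at 37C; firefly luciferase luminescence was then recorded with Dual-Glo reagent.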
Potency is read from the fitted curve at half-maximal effect; tags tell the direction and shape of the fitted curve.

| Compound | Potency |
| --- | --- |
| CC(C)Oc1ccc(C(=O)N(Cc2ccco2)c2ccccn2)cc1 | inactive |
| Cc1oc(-c2ccc(C(=O)Nc3cccc(C(F)(F)F)c3)cc2)nc1CSc1ccccc1 | inconclusive: 1.2 µM [inhibitor, partial curve] |
| COc1cc(OC)c(C2C=C(c3ccc(C)cc3)Nc3c(C(=O)Nc4ccccc4)cnn32)cc1OC (stereo not given) | inconclusive: 19 µM [inhibitor, partial curve, poor fit] |
| COc1ccc(C(=O)NCCSc2c(C)[nH]c3ccccc23)cc1 | inconclusive: 21.3 µM [inhibitor, single point] |
| O=S(=O)(NCCc1csc2nc(-c3ccccc3)nn12)c1ccc(Oc2ccccc2)cc1 | inconclusive: 26.9 µM [inhibitor, single point] |
| Cc1ccc(C(=O)Nc2nc(-c3nnn(-c4cccc(Cl)c4C)c3C)ns2)cc1C | inconclusive: 3.01 µM [inhibitor, full curve] |
| CCc1ccccc1N(C)C(=O)C1CCCN(c2ncnc3c2nc2n3CCCCC2)C1 (stereo not given) | inconclusive: 23.9 µM [inhibitor, partial curve] |
| Cn1c(=O)c2sccc2n2c(CCCC(=O)Nc3ccc(Oc4ccc(Cl)cc4)cc3)nnc12 | inconclusive: 30.1 µM [inhibitor, partial curve] |
| CCOc1ccccc1CNC(=O)C(CC)n1nc(C)c2c(C)n(-c3ccccc3)nc2c1=O (stereo not given) | inconclusive: 16.9 µM [inhibitor, partial curve] |
| CCOC(=O)C1CCCN(S(=O)(=O)c2ccc3c(c2)CCCN3C(C)=O)C1 (stereo not given) | inconclusive: 19 µM [inhibitor, partial curve] |
| O=C(NCCC1=CCCCC1)c1ccc2c(c1)N(Cc1cccc(Cl)c1)C(=O)c1ccccc1S2(=O)=O | inactive |
| O=C(Nc1ccc(F)cc1F)c1ccc2c(c1)CCN2S(=O)(=O)c1ccc(Cl)cc1 | inconclusive: 21.3 µM [inhibitor, partial curve] |
| CCc1c(C)sc2c1CCN(Cc1ccccc1F)C2c1ccccc1 (stereo not given) | inconclusive: 8.49 µM [inhibitor, partial curve, poor fit] |
| CCCc1cc(N2CCN(c3ccccc3F)CC2)n2cnnc2n1 | inconclusive: 7.57 µM [inhibitor, partial curve] |
| COc1cc(NC(=O)Cn2nc(C(F)(F)F)c3c2CCC3)cc(OC)c1OC | inconclusive: 23.9 µM [inhibitor, partial curve, poor fit] |
| Cc1cc(C)cc(N2C(=O)CSC23C(=O)N(Cc2c(F)cccc2Cl)c2ccccc23)c1 (stereo not given) | inconclusive: 37.9 µM [inhibitor, single point] |
| CCOC(=O)C1=C(CN2CCN(c3ccc(C)cc3C)CC2)NC(=O)NC1c1ccc(OC)cc1 (stereo not given) | inconclusive: 10.7 µM [inhibitor, partial curve] |
| Cc1ccc(N2C(=O)C(CC(=O)Nc3ccccc3)N(CCC3=CCCCC3)C2=O)cc1 (stereo not given) | inactive |
| CCCCN1C(C(=O)c2ccccc2)=C(OC(=O)CC)c2ccccc2S1(=O)=O | inconclusive: 21.3 µM [inhibitor, partial curve] |
| O=C(Nc1ccc(OC(F)(F)F)cc1)C(NS(=O)(=O)c1cccc2nsnc12)c1ccccc1 (stereo not given) | inconclusive: 26.9 µM [inhibitor, single point] |

| Compound | Potency |
| --- | --- |
| COc1ccc(-c2nnc(C3CCN(C(=O)c4ccccc4F)CC3)o2)cc1 | inactive |
| Cn1c(=O)n(C)c2cc(NS(=O)(=O)c3ccc(C(C)(C)C)cc3)c(NCc3ccccc3)cc21 | inconclusive: 37.9 µM [inhibitor, single point] |
| Cc1ccc(C)c(N2CCN(S(=O)(=O)c3ccc(C(=O)N(C)C)s3)CC2)c1 | inconclusive: 23.9 µM [inhibitor, single point] |
| CCCC(O)c1nc2ccccc2n1CCCCOc1ccc(OC)cc1 (stereo not given) | inconclusive: 19 µM [inhibitor, partial curve] |
| CC1Cc2cc(S(=O)(=O)N(Cc3ccccc3)C(C)C)ccc2N1C(=O)C1CCC1 (stereo not given) | inconclusive: 33.8 µM [inhibitor, single point] |
| CN(C)c1ccc(C(=O)Nc2sc(Nc3ccccc3)nc2C(N)=O)cc1 | inconclusive: 19 µM [inhibitor, partial curve] |
| COc1ccc(C2(CNC(=O)C(=O)Nc3cccc(C(F)(F)F)c3)CCCC2)cc1OC | inconclusive: 15.1 µM [inhibitor, single point] |
| CCCNc1nc(NCc2ccccc2OC)c2cnn(C)c2n1 | inconclusive: 12 µM [inhibitor, partial curve] |
| Cc1ccccc1OCc1ccc(-c2nc(C#N)c(NCc3cccnc3)o2)o1 | active: 19 µM |
| Cc1ccc(CCNC(=O)C(C)n2nc(C)c3c(C)n(-c4ccc(C)cc4)nc3c2=O)cc1 (stereo not given) | inconclusive: 10.7 µM [inhibitor, partial curve] |
| O=C(Nc1cc(Cl)cc(Cl)c1)c1ccc(F)c(S(=O)(=O)N2CCCC2)c1 | inconclusive: 37.9 µM [inhibitor, single point] |
| CCc1c(C)sc2c1CCN(C(=O)Nc1ccc(F)c(Cl)c1)C2c1ccc(F)cc1 (stereo not given) | inconclusive: 23.9 µM [inhibitor, partial curve] |
| COc1ccc(S(=O)(=O)N(CCc2ccccc2)CC(=O)Nc2cc(C)cc(C)c2)cc1OC | inconclusive: 26.9 µM [inhibitor, single point] |
| CCc1ccc2oc(C(=O)NCCc3ccc(OC)c(OC)c3)cc(=O)c2c1 | inconclusive: 21.3 µM [inhibitor, partial curve] |
| COc1ccc(S(=O)(=O)Nc2cc3c(cc2NCc2ccccc2)n(C)c(=O)n3C)cc1OC | inactive |
| CCc1ccc(NC(=O)c2ccc(F)c(S(=O)(=O)N3CCc4ccccc4C3)c2)cc1 | inconclusive: 21.3 µM [inhibitor, partial curve] |
| COc1ccc(-c2noc(N3CCN(c4cccc(Cl)c4)CC3)n2)cc1OC | inconclusive: 21.3 µM [inhibitor, partial curve] |
| COc1cc(OC)cc(C(=O)Nc2c(C(=O)Nc3ccc(F)cc3)oc3ccccc23)c1 | inactive |
| Cc1oc(-c2ccc(C(=O)NCc3ccc(Cl)cc3)cc2)nc1CS(=O)(=O)c1ccccc1 | inconclusive: 13.5 µM [inhibitor, partial curve] |
| CCN(CC)c1ccc(NC(=O)COCc2cc(-c3ccc4c(c3)OCO4)on2)c(C)c1 | inconclusive: 21.3 µM [inhibitor, partial curve] |
